Laboratory results reported in patent US20180044686A1, “TOOLS AND METHODS FOR USING CELL DIVISION LOCI TO CONTROL PROLIFERATION OF CELLS” (Sinai Health System, priority 2015, published 2018).

Tested on: mouse ES cells with an HSV-TK-mCherry knock-in into the 3′UTR of the CDK1 locus
Experiment: GCV killing of ALINK-modified (Cdk1-HSV-TK) mouse ES cells in vitro

## Nc1nc(O)c2ncn(COC(CO)CO)c2n1 [GCV, ganciclovir]
GCV 0.01 μM, 3 days, n=5
  cell growth (colony size): slowed down cell growth
  colony number: did not affect the colony number
homozygously- and heterozygously-modified cells
  ablation of undifferentiated ES cells: ablates both homozygously- and heterozygously-modified cells
